Assay results taken from the supplement of paper PMC10502849.
Where a name gives a salt, the structure may show the parent alone. Some of the results follow. Repeats are few or missing, and single values can be far off.

How the values were obtained:
[1] = tested on: H9 teratoma-derived LAM model cells, TSC2-/-; experiment: percent SyTOX+ dead cells; higher = more cytotoxic; details: 5 µM, treatment time 72 h, culture: 3D hyaluronic acid hydrogel
[2] = tested on: H9 teratoma-derived LAM model cells, WT; experiment: percent SyTOX+ dead cells; higher = more cytotoxic; details: 5 µM, treatment time 72 h, culture: 3D hyaluronic acid hydrogel, genotype: WT
[3] = tested on: H9 teratoma-derived LAM model cells, TSC2-/-; experiment: percent of cells invaded past median invasion distance of vehicle control; LAM is lymphangioleiomyomatosis; the cells come from teratomas of the human stem cell line H9; higher = more invasion; extreme values may be limits of the assay; details: 5 µM, treatment time 72 h, culture: 3D hyaluronic acid hydrogel
[4] = tested on: H9 teratoma-derived LAM model cells, WT; experiment: as above; details: 5 µM, treatment time 72 h, culture: 3D hyaluronic acid hydrogel, genotype: WT
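Throughout, for percent SyTOX+ dead cells: cells seeded atop a hyaluronic acid gel crosslinked via MMP-cleavable peptides, containing vitronectin peptides and methylcellulose, imaged live by high-content microscopy with automated analysis, one technical replicate per compound.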
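Throughout, for percent of cells invaded past median invasion distance of vehicle control: live cells imaged by high content microscopy and scored with in-house automated image analysis, one technical replicate per compound in each genotype and rapamycin condition.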

SMILES | percent SyTOX+ dead cells ([1]; rapamycin 0 nM) [%] | percent SyTOX+ dead cells ([1]; rapamycin 20 nM) [%] | percent SyTOX+ dead cells ([2]; rapamycin 0 nM) [%] | percent SyTOX+ dead cells ([2]; rapamycin 20 nM) [%] | percent ([3]; rapamycin 0 nM) [%] | percent ([3]; rapamycin 20 nM) [%] | percent ([4]; rapamycin 0 nM) [%] | percent ([4]; rapamycin 20 nM) [%]
Cc1nc2c(O)cccc2c(=O)[nH]1 | 16.7 | 8.37 | 10.5 | 21 | 62.8 | 40.6 | 32.6 | 29.6
Cn1c(=O)n(-c2ccc(C(C)(C)C#N)cc2)c2c3cc(-c4cnc5ccccc5c4)ccc3ncc21 | 15 | 9.39 | 22.6 | 13.8 | 13.2 | 19.9 | 13 | 21.8
CC#CC(=O)Nc1ccc2ncnc(Nc3cccc(Br)c3)c2c1 | 24.2 | 22.8 | 30.9 | 31 | 10.5 | 8.89 | 9.93 | 8.08
Nc1[nH]nc2nc3ccccc3nc12 | 11.9 | 16.1 | 7.02 | 9.34 | 16.4 | 16.9 | 22.8 | 17.9
O=C1Cc2c([nH]c3ccc(Br)cc23)-c2ccccc2N1 | 36.5 | 45.8 | 41 | 0 | 0.93 | 0 | 0 | 0
C[C@]12C=CC(=O)C=C1CC[C@@H]1[C@@H]2[C@@H](O)C[C@@]2(C)[C@H]1CC[C@]2(O)C(=O)CO [Prednisolone; Prelone] | 12.8 | 11.4 | 8.74 | 12.7 | 64.3 | 47.8 | 55.7 | 44.1
O=C(O)[C@]1(Cc2cccc(Nc3nccs3)n2)CC[C@@H](Oc2cccc(Cl)c2F)CC1 | 18.5 | 10.5 | 38 | 25.3 | 54 | 46.2 | 20.7 | 12.6
CCN1CCN(Cc2ccc(-c3cc4c(N[C@H](C)c5ccccc5)ncnc4[nH]3)cc2)CC1 | 9.09 | 7.28 | 49.5 | 43.6 | 46 | 23.2 | 4.64 | 2.56
NS(=O)(=O)OCC1CC(n2ccc3c(NC4CCc5ccccc54)ncnc32)CC1O (stereo not given) [MLN-4924, Pevonedistat] | 10.4 | 11.1 | 15.6 | 11.5 | 46 | 33.2 | 26.4 | 21.1
CCc1cc(Nc2nccc(-c3c(-c4ccc(OC)c(C(=O)Nc5c(F)cccc5F)c4)nc4ccccn34)n2)c(OC)cc1N1CCC(N2CCN(S(C)(=O)=O)CC2)CC1 | 4.47 | 5.03 | 10.8 | 7.99 | 21.1 | 19.6 | 6.09 | 17.7
CCCCCCCCCCCCCCCCn1cc[n+](Cc2ccccc2)c1C | 13.2 | 22.3 | 21.4 | 39.8 | 41.6 | 68.2 | 40.2 | 37
O=C(Nc1cc(Cl)cc2c1[nH]c1cnccc12)c1cccnc1 [PS1145 dihydrochloride] | 10.2 | 15.3 | 20.8 | 15.1 | 50.5 | 30 | 28.6 | 34.6
Fc1ccc(Cl)cc1-c1nc(Nc2ccncc2)c2nccnc2n1 | 9.42 | 12.1 | 17.7 | 17.4 | 40.8 | 22.1 | 23.2 | 27.5
Nc1ncnc(Nc2ccc(OCc3ccccc3)c(Cl)c2)c1/C=N/OCCN1CCOCC1 | 10.1 | 19.9 | 12.7 | 18.4 | 20.2 | 14.3 | 26.8 | 5.6
Cc1cc(Nc2ncc3c(n2)N(C)C(=O)N(c2cc(NC(=O)c4cccc(C(F)(F)F)c4)ccc2C)C3)n(C)n1 [SC-1, Pluripotin] | 65.9 | 63.4 | 88 | 82.4 | 0.59 | 0 | 0 | 0
OCc1ccc(-c2ccc(-c3ccc(CO)s3)o2)s1 | 15.3 | 15.5 | 27.2 | 15.5 | 91.9 | 70.4 | 37.8 | 24.2
C[C@@H](c1ncncc1F)[C@](O)(Cn1cncn1)c1ccc(F)cc1F | 11.3 | 6 | 5.98 | 5 | 56.6 | 30 | 69 | 41.1
CN(C)c1ccc(/C=C2/C(=O)Nc3ccccc32)cc1 | 17.5 | 17.9 | 31.4 | 17.7 | 36.8 | 11.3 | 0.98 | 3.8
CC(C)[C@H](CO)Nc1nc(Nc2ccc(C(=O)O)c(Cl)c2)c2ncn(C(C)C)c2n1 [Purvalanol B, NG 95] | 4.49 | 10.9 | 15 | 7.77 | 20 | 37.6 | 50 | 38.4
Nc1nc(NCCNc2ncc(-n3ccnc3)c(-c3ccc(Cl)cc3Cl)n2)ccc1[N+](=O)[O-] | 18.8 | 28.5 | 27.6 | 25.9 | 2.69 | 26.9 | 0.79 | 7.48
Nc1ccc(-c2cccc3c(=O)cc(N4CCOCC4)oc23)cc1 | 16 | 19.9 | 23.1 | 17.3 | 48.7 | 43.3 | 35.4 | 29.5
O=C(Nc1cccc(Nc2ncc(Br)c(NCCc3cnc[nH]3)n2)c1)N1CCCC1 | 23.9 | 23 | 56.3 | 43.9 | 14.7 | 10.7 | 1.75 | 2.93
Nc1ncnc2c1c(-c1cccc(OCc3ccccc3)c1)cn2C1CC(CN2CCC2)C1 (stereo not given) | 26.7 | 29.7 | 36.8 | 36.9 | 1.78 | 2.29 | 9.54 | 9.5

SMILES | percent SyTOX+ dead cells ([1]; rapamycin 0 nM) [%] | percent SyTOX+ dead cells ([1]; rapamycin 20 nM) [%] | percent SyTOX+ dead cells ([2]; rapamycin 0 nM) [%] | percent SyTOX+ dead cells ([2]; rapamycin 20 nM) [%] | percent ([3]; rapamycin 0 nM) [%] | percent ([3]; rapamycin 20 nM) [%] | percent ([4]; rapamycin 0 nM) [%] | percent ([4]; rapamycin 20 nM) [%]
Oc1ccc(-c2ccc(-c3cc(Nc4ccc(CNC5CC5)cc4)n[nH]3)cc2)c(O)c1 [TCS 2312 dihydrochloride] | 34.4 | 39.2 | 44.8 | 37 | 0 | 0 | 1.15 | 0
Cc1cnc(Nc2ccc(OCCN3CCCC3)cc2)nc1Nc1cccc(S(=O)(=O)NC(C)(C)C)c1 | 28.5 | 17.8 | 31.1 | 24.4 | 50 | 75.8 | 57.3 | 57.3
CCN(CC)CCNC(=O)c1ccc2nc(-c3ccccc3)c(-c3ccc(CN4CCC(n5c(=O)[nH]c6ccccc65)CC4)cc3)nc2c1 [Merck-22-6] | 23 | 8.07 | 15.8 | 13.2 | 76.6 | 82 | 66.5 | 52.5
N#Cc1c(-c2ccccc2)cc(-c2cc(Br)ccc2O)[nH]c1=O | 69.2 | 40.8 | 44.1 | 29.3 | 52.6 | 41.4 | 8.4 | 27.4
O=C(NCc1ccccc1)c1csc(Nc2ccncn2)n1 [Thiazovivin] | 47.4 | 23.6 | 30 | 36.3 | 7.51 | 0 | 0 | 1.61
Cc1cccc(-c2[nH]c(C(C)(C)C)nc2-c2ccc3c(c2)OCO3)n1 | 19.3 | 10.9 | 17.4 | 17.5 | 44.3 | 15.6 | 13.4 | 12.6
CC1(O)CC(c2nc(-c3ccc4ccc(-c5ccccc5)nc4c3)c3c(N)nccn23)C1 (stereo not given) [OSI-906, Linsitinib] | 6.99 | 11.1 | 12.4 | 21.2 | 65.9 | 80.8 | 67.9 | 67.7
Cc1cc(Nc2nc(N[C@@H](C)c3ncc(F)cn3)ncc2Cl)[nH]n1 | 59.3 | 46.8 | 78.1 | 79.4 | 17.6 | 22.1 | 0 | 0
C[C@]12CC[C@H](O)CC1=CC[C@@H]1[C@@H]2CC[C@]2(C)C(c3cccnc3)=CC[C@@H]12 [Abiraterone, CB-7598] | 9.96 | 15 | 11.8 | 7.48 | 37.6 | 43.4 | 46.1 | 34.8
O=C(O)C(Cc1c[nH]c2ccccc12)N1C(=O)c2ccccc2C1=O (stereo not given) | 5.11 | 10.9 | 11.6 | 8.38 | 93.8 | 25.2 | 70.1 | 33.5
C[C@@H](N)c1ccc(C(=O)Nc2ccnc3[nH]ccc23)cc1 | 5.31 | 9.2 | 28 | 21.1 | 88.4 | 4.6 | 59.6 | 0
O=C(/C=C/c1ccc(O)cc1)c1ccc(O)cc1O [Isoliquiritigenin, ISLQ] | 29 | 47.5 | 29.9 | 48.6 | 0.3 | 0.38 | 0 | 0
CCn1c(-c2nonc2N)nc2cnc(Oc3cccc(NC(=O)c4ccc(OCCN5CCOCC5)cc4)c3)cc21 | 18.3 | 17.1 | 17.4 | 16.4 | 0 | 0 | 0 | 0
O=C(c1cn(Cc2cncn2Cc2ccc(Br)cc2)cc1-c1cccc2ccccc12)N1CCOCC1 | 14.8 | 15.8 | 13.2 | 15.2 | 58.8 | 47.2 | 68.7 | 50.2
C[C@@H](NC(=O)/C(C#N)=C/c1ccc(O)c(O)c1)c1ccccc1 [Tyrphostin B44, (-) enantiomer] | 17.8 | 18.6 | 13.6 | 15.3 | 15.3 | 6.91 | 48.1 | 25.6
O=C(O)c1ccc2c3c1cccc3c(=O)n1c3ccccc3nc21 [STO-609 acetic acid] | 5.23 | 8.66 | 14.4 | 19.2 | 45.1 | 25.2 | 19.3 | 16
O=C1C(Cl)=C(NCCN2CCOCC2)C(=O)c2ncccc21 | 6.69 | 15.2 | 13.2 | 15.9 | 48.7 | 52 | 56.1 | 60.5
COc1cc2ncnc(-n3nc(-c4ccccn4)nc3N)c2cc1OC | 7.69 | 3.37 | 14.6 | 7.72 | 49.1 | 86.5 | 41.8 | 50.1
O=C(Nc1ncc(SCCN2CCCC2)s1)[C@]1(c2ccc(S(=O)(=O)C3CC3)cc2)C[C@H]1C1CCCCC1 | 12 | 12.2 | 16.5 | 12.1 | 69.4 | 66.1 | 55.3 | 46
Cc1cnc(-c2cnc(NCCNc3ccc(C#N)cn3)nc2-c2ccc(Cl)cc2Cl)[nH]1 | 10.1 | 12.7 | 11.7 | 10.7 | 12 | 33 | 11.3 | 53.3
O=C(O)c1ccc(Nc2ncc3c(n2)-c2ccc(Cl)cc2C(c2c(F)cccc2F)=NC3)cc1 | 19.7 | 7.32 | 28.6 | 25.6 | 51.6 | 54.3 | 33.3 | 27.3
CCN(CC)CCCCNc1ncc2cc(-c3cc(OC)cc(OC)c3)c(NC(=O)NC(C)(C)C)nc2n1 | 15.1 | 11.3 | 10.4 | 17.8 | 58.6 | 42.7 | 12.6 | 22.4
